Out of some 410,000 compounds screened, about 5,000 (1.2%) were called active. Inconclusive results, whose numbers are uncertain, are shown with a selection of clear calls. Calls come from the whole dose curve; as a rule, active = well fitted inhibition curve with a large enough effect; inconclusive = small, poorly fitted or top-dose-only effect; inactive = no such curve, though single readings can be large or run the other way. Potencies of inconclusive entries are doubtful fits and often do not repeat.
Experiment: qHTS for Inhibitors of TGF-b; note: nearly all actives have a fitted effect of over 65% in size
Conditions: HepG2 CAGA-GFP TGF-b/SMAD3 reporter, GFP fluorescence, 18 h, TGF-beta stimulated, 500 pg/mL final; series mostly up to 46.1 µM; activity, negative = inhibition: at the top concentration
Summary of the method: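 Smad-responsive CAGA-GFP expression was quantified in HEPG2 cells exposed to compounds and 500 pg/mL final TGF-beta for 18 h at 37 degrees C; unstimulated wells defined full inhibition.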
% is set by controls: 0 for no effect and ±100 for the full control effect; potency is the fitted concentration of half-maximal effect; tags give direction and shape of the fitted curve.

| Structure (SMILES) | activity, negative = inhibition | Potency |
| --- | --- | --- |
| CCOC(=O)c1[nH]c2c(c1C)C(=O)CC(c1ccc(F)cc1)C2 (stereo not given) | inactive: -2.51% | – |
| COC(=O)Cn1c(=NC(=O)C2COc3ccccc3O2)sc2cc(S(N)(=O)=O)ccc21 (stereo not given) | inactive: -15.3% | – |
| COc1ccccc1CNC(=O)c1cc2c(=O)n(Cc3cccs3)ccc2nc1C | – | inconclusive: 14.1 µM [inhibitor, partial curve, poor fit] |
| Cc1ccc(CNC(=O)CN2CCCC(C)C2)cc1 (stereo not given) | inactive: 14.9% | – |
| CN(C1=NS(=O)(=O)c2ccccc21)c1ccc(OC(=O)c2ccccc2)cc1 | inactive: -1.15% | – |
| Cc1cc(NC(=O)CN2C(=O)CSc3ccc(S(=O)(=O)N(C)C)cc32)ccc1Br | – | inconclusive: 22.4 µM [inhibitor, single point] |
| CC(C)CC(/C(O)=C(\C#N)c1nc2ccccc2[nH]1)N1C(=O)c2ccccc2C1=O (stereo not given) | – | inconclusive: 10 µM [inhibitor, partial curve, poor fit] |
| COc1cccc(CNc2nc(NCc3ccccc3)nc3ccsc23)c1 | – | inconclusive: 28.2 µM [inhibitor, single point] |
| CSc1ccc(CCNC(=O)c2ccc3c(c2)nc2n3CCOC2)cc1 | – | inconclusive: 35.5 µM [inhibitor, single point] |
| CC(C)COc1cccc(C(=O)N2CCN(C(=O)c3ccco3)CC2)c1 | inactive: 1.85% | – |
| CCc1ccc(NC(=O)c2cnn(-c3ccccc3)c2-n2cccc2)cc1 | – | inconclusive: 10 µM [inhibitor, partial curve, poor fit] |
| CCC(Oc1ccccc1)C(=O)Nc1nnc(S(=O)(=O)N(CC)CC)s1 (stereo not given) | – | inconclusive: 35.5 µM [inhibitor, single point] |
| Cc1ccc(OCC(=O)N2N=C(c3ccncc3)CC2(O)C(F)(F)F)cc1C (stereo not given) | – | inconclusive: 25.1 µM [inhibitor, single point] |
| O=C(CCCc1c[nH]c2ccccc12)NCc1ccccc1C(F)(F)F | – | inconclusive: 35.5 µM [inhibitor, single point] |
| CC(=O)Nc1nc2cc3c(cc2s1)OCCO3 | inactive: -5.54% | – |
| CN(C)c1ccc(C2CC(c3cccc(NS(C)(=O)=O)c3)=NN2C(=O)c2ccccc2)cc1 (stereo not given) | inactive: 0.567% | – |
| CC(C)(C)c1ccc(C(=O)N/N=C/c2cccc(Cl)c2)cc1 | – | inconclusive: 35.5 µM [inhibitor, single point] |
| O=C(NCCN1CCN(c2cccc(Cl)c2)CC1)Nc1ccccc1 | – | inconclusive: 20 µM [inhibitor, single point] |
| COc1ccccc1CCNC(=O)C1CC(=O)N(c2ccccc2F)C1 (stereo not given) | inactive: -1.09% | – |
| O=C(CSc1nc(-c2ccccc2)nc2ccccc12)Nc1cccc(C(=O)O)c1 | inactive: -0.319% | – |

Reference: PubChem BioAssay AID588855 (National Center for Advancing Translational Sciences (NCATS), 2011)
